Source: PubChem BioAssay AID1963431 (Molecular Pharmacology Branch, DTP, NCI, 2024)
Not every entry of the source has a single result; some have several. This is not the full list of results. An entry can have further records. Values given together repeat one measurement in other runs, samples, wells, individuals or studies. Marks such as [2022-09] give the month of the run. Brackets with × stand for listed records that agree.

Tested on: Rh18 complex spheroid viability, percent test/control
Test: Anticancer human tumor Rh18 cell line growth inhibition [Asc];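 also: spheroids exposed to compound for 7 days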;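 as to viability, T/C: 100% = DMSO vehicle control wells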
Conditions: for viability, T/C: stronger effect = lower value
Protocol: Multicellular complex tumor spheroid response to apoptosis pathway targeting inhibitors Alrizomadlin, Pelcitoclax, and Dasminapant in combination with a variety of drugs and investigational agents in selected tumor cell lines
The MDM2 inhibitor alrizomadlin, the Bcl-2/Bcl-xL inhibitor pelcitoclax, and the IAPs inhibitor dasminapant were evaluated both individually and in combination with standard of care and investigational anticancer small molecules within a complex spheroid model of solid tumors. . Complex spheroids include a stromal component modeled by human endothelial cells (HUVEC) and fibroblasts modeled by human mesenchymal stem cells (MSCs). The concentration ranges selected for each drug and investigational agent were based upon clinically achievable concentrations if the clinical Cmax of the agent was known.
Compounds. The drugs and investigational agents: alrizomadlin (APG-115; NSC831270), pelcitoclax (APG-1252; NSC835773), dasminapant (APG-1387;NSC834197), TAK-243 (NSC785004), copanlisib (NSC809693), olaparib (NSC753686), talazoparib (NSC767125), cobimetinib (NSC 768068), eltanexor (KPT-8602, NSC 794443), abemaciclib (NSC 768073), sotorasib (NSC818433), adagrasib (NSC 831453), MRTX-1133 (NSC 836407), Iadademestat (ORY1001, NSC 806812), and RMC-4630 (NSC839698), were obtained from the NCI Developmental Therapeutics Program Chemical Repository. The FDA-approved anticancer drug set is available from the Developmental Therapeutics Program at https://dtp.cancer.gov/organization/dscb/obtaining/available plates.htm. […] The stock solutions were prepared in dimethyl sulfoxide (DMSO, Sigma-Aldrich, St. Louis, MO, cat. D2650) at 800-fold the tested concentration and stored at -70 degrees C prior to their use. All drugs and investigational agents were tested over a range starting from a high concentration at or near the clinical Cmax and decreasing in half-log increments. If the clinical Cmax for an agent had not been determined, the highest concentration tested was 10 microM.
The patient-derived cancer (PDC) cell lines include five colon adenocarcinomas: 186277-243-T-J2-PDC, 616215-338-R-J1-PDC, 439559-082-T-J2-PDC, 463943-066-T-J2-PDC, and 519858-162-T-J1-PDC; three pancreatic carcinomas: 323965-272-R-J2-PDC, 521955-158-R6-J3-PDC, and 521955-158-R2-J5-PDC; two uterine sarcomas: 327498-152-R-J2-PDC and 993429-296-R-J1-PDC; two rhabdomyosarcomas: 755483-174-R-J1-PDC and 772245-204-R-J1-PDC; two soft tissue sarcomas: 126254-015-R-J1-PDC and 494315-158-R-J1-PDC; two malignant fibrous histiocytomas: 317291-083-R-J1-PDC and 596521-263-R-J1-PDC; two breast carcinomas: 171881-019-R-J1-PDC and 885512-296-R-J2-PDC; and one ovarian carcinoma: 6556581-035-R-J-PDC were obtained from the NCI PDMR, (https://pdmr.cancer.gov). The established cell lines HSSY-2 synovial sarcoma (RRID:CVCL 8719), SYO-1 synovial sarcoma (RRID:CVCL_7146), MPNST malignant peripheral neural sheath tumor were obtained from the Sloan Kettering Institute. The following established cell lines were purchased from the American Type Culture Collection (ATCC, Manassas, VA), Sor the received from the NCI repository:, PANC-1 pancreatic carcinoma (CRL-1469, RRID:CVCL_0480), OVCAR-5 ovarian carcinoma (RRID:CVCL_1628), OVCAR-8 ovarian carcinoma (RRID:CVCL_1629), , MCF-7 breast carcinoma (CRL-12584, RRID:CVCL_0031), MDA-MB-231 breast carcinoma (CRL-12532, RRID:CVCL_0062), NCI-H1876 small cell lung carcinoma (CRL-5902, RRID:CVCL_1503), NCI-H510A small cell lung carcinoma (HTB-184, RRID:CVCL_1565), NCI-H1417 (CRL-5869, RRID:CVCL_1469), and NCI-H196 small cell lung carcinoma (CRL-5823, RRID:CVCL_1509). Dr. Peter Houghton (Greehey Children's Cancer Research Institute, University of Texas Health Science Center, San Antonio, TX) provided Rh-18 rhabdomyosarcoma (RRID:CVCL_1659). Pooled donor human umbilical vein endothelial cells (HUVEC, Lonza, cat. CC-2519) and human mesenchymal stem cells (hMSC, Lonza, cat. PT-2501) were purchased from Lonza (Walkersville, MD).
Cell Culture. […]

CNC(C)C(=O)NC1CN(S(=O)(=O)c2cccc(S(=O)(=O)N3CCC4CCC(C(=O)NC(c5ccccc5)c5ccccc5)N4C(=O)C(NC(=O)C(C)NC)C3)c2)CCC2CCC(C(=O)NC(c3ccccc3)c3ccccc3)N2C1=O (stereo unspecified)
viability, T/C (compound alone 0.01 µM): 63.3, 57.9, 60.2, 71.1, 58.5, 67.1, 45.9, 62.1, 55.8, 61.5, 63.2, 65.3, 59.4% [2022-10] and 64% [2022-11] | viability, T/C (compound alone 0.0316 µM): 43.9, 48, 54, 59.7, 56.9, 59.9, 57.8, 62.3, 46.9, 60.8, 53.3, 37.5, 64% [2022-10] and 53.5% [2022-11] | viability, T/C (compound alone 0.1 µM): 41.9 (2×), 37.4, 44.8, 38.6, 56.3, 40.3, 44.7, 56.4, 33.1, 40.7, 51, 49.2% [2022-10] and 59.8% [2022-11] | viability, T/C (compound alone 0.316 µM): 44, 40.3, 66.8, 50.6, 45.7, 35.9, 43.1, 58.8, 35, 46.6, 39.3, 52.1, 32.5% [2022-10] and 67.2% [2022-11] | viability, T/C (compound alone 1 µM): 24.7, 39.8, 45.9, 49.7, 41.1, 44, 43.8, 43.6, 40.1, 35.8, 42.9, 47.9, 39.9% [2022-10] and 60.2% [2022-11] | IC50 (compound alone, run of 10/24/2022): > 1 µM, 72.7 nM, 219 nM, 56.4 nM, 14.5 nM, 592 nM, 17.2 nM, 74.8 nM, 44 nM, 26.3 nM, 93.2 nM
